Data published in the supplement of paper PMC3334620.
The full ranking holds about 33,000 sequences; the median of “E-score (-0.5 to 0.5)” is about -0.054, and the highest 2% start at about 0.39. The list shows a part of the results.

Each sequence was assayed against Ylr278c (UniProt Q05854) (assay: PBM E-score (8-mer binding enrichment) (E-score (-0.5 to 0.5)); higher = stronger / more preferred TF binding; most listed sequences are background and not binding sites). Details: protein concentration: 200 nM; construct: GST-DNA-binding domain.
How it was run: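 Using PURExpress in vitro transcription/translation, GST-tagged yeast transcription factors were made in full-length or DNA-binding-domain form. These were applied at about 100-200 nM to double-stranded universal all-10-mer Agilent arrays, and bound protein was detected with fluorescent anti-GST. Scans were normalised with masliner before the Universal PBM Analysis Suite assigned E-scores to ungapped eight-base words pooled with their reverse complements.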
TAAGTAGA was tested, and the “PBM E-score” value was -0.107. In the case of CACCTAAG, the “PBM E-score” value is reported as -0.134. With CCCTTCAG the “PBM E-score” value was -0.262. For CACCGATA, the “PBM E-score” value was 0.194. For ATCTCAGA, the “PBM E-score” value was -0.186. With AGTTATGG the “PBM E-score” value was -0.166. ATGATGCC was tested, and the “PBM E-score” value was -0.175. ATTCACGC was tested, and the “PBM E-score” value was -0.101. For GACTACGA, the “PBM E-score” value was -0.128. With GAAGCCCA the “PBM E-score” value was -0.1. For GATGTACC, the “PBM E-score” value was -0.146. With AACCGGGC the “PBM E-score” value was 0.0679. With CCGGTGCA the “PBM E-score” value was 0.313. With AGCTGTAA the “PBM E-score” value was -0.205. For CCGGCAGG, the “PBM E-score” value was 0.279. For CCTTTGAG, the “PBM E-score” value was -0.231. In the case of CTCATATC, the “PBM E-score” value is reported as -0.0441. In the case of TATGGTCA, the “PBM E-score” value is reported as -0.274. For CCCTGCGA, the “PBM E-score” value was -0.217. With CGTCGGCA the “PBM E-score” value was 0.312. In the case of CGTCGCAA, the “PBM E-score” value is reported as 0.0768. CGGCGTGA was tested, and the “PBM E-score” value was 0.237. CCTACCAA was tested, and the “PBM E-score” value was -0.0918. AGGGTGCA was tested, and the “PBM E-score” value was -0.0981. With AACTTGAA the “PBM E-score” value was 0.123. For CTTTCTGA, the “PBM E-score” value was -0.288. In the case of AAATCACC, the “PBM E-score” value is reported as 0.243. In the case of GCACAGGA, the “PBM E-score” value is reported as -0.0572. GTCAAAGA was tested, and the “PBM E-score” value was -0.0951. With AATCCGCT the “PBM E-score” value was 0.269. In the case of GGATATAC, the “PBM E-score” value is reported as 0.192. TACGTAGA was tested, and the “PBM E-score” value was -0.129. In the case of ACAGCTCA, the “PBM E-score” value is reported as -0.251. For CATTCCGC, the “PBM E-score” value was 0.32. For ATAGACAG, the “PBM E-score” value was -0.162. CTCGGTTC was tested, and the “PBM E-score” value was -0.132. For AAGTATTC, the “PBM E-score” value was -0.0556. With AGAGTGCT the “PBM E-score” value was -0.203. In the case of CAGCTCAA, the “PBM E-score” value is reported as -0.0673. ATTTGGCC was tested, and the “PBM E-score” value was -0.0203. For AACGCCTT, the “PBM E-score” value was 0.0115. For ATCATAAT, the “PBM E-score” value was -0.0773. For CGGCGTTA, the “PBM E-score” value was 0.405. For CGCATTAG, the “PBM E-score” value was -0.0756. In the case of CTTACGAC, the “PBM E-score” value is reported as -0.201. In the case of AAAGTCAG, the “PBM E-score” value is reported as -0.0825. With AAAACAAG the “PBM E-score” value was -0.0822. CGTGCGAG was tested, and the “PBM E-score” value was 0.0659. For AGCACGTA, the “PBM E-score” value was -0.14. For GCCCCTAA, the “PBM E-score” value was -0.0023. With CAGTGTGG the “PBM E-score” value was -0.192. With CAAACTGC the “PBM E-score” value was 0.00215. With ACGCGTAC the “PBM E-score” value was -0.153. For GATACGCC, the “PBM E-score” value was 0.171. For AATTAACT, the “PBM E-score” value was -0.132. For AAGCGTAT, the “PBM E-score” value was -0.0943. With AAGCGCTA the “PBM E-score” value was 0.0473. For CAGCCTAC, the “PBM E-score” value was 0.00996. For CCTCGCCG, the “PBM E-score” value was 0.117. CGCGGGCA was tested, and the “PBM E-score” value was 0.275. CTCTACGC was tested, and the “PBM E-score” value was -0.25. With ACGGGCGC the “PBM E-score” value was 0.192. For CCCCCATA, the “PBM E-score” value was -0.183. With GCCCGTTA the “PBM E-score” value was -0.0559. In the case of ATATGCTG, the “PBM E-score” value is reported as -0.194. With CAAGATGC the “PBM E-score” value was 0.194. For GCAATACA, the “PBM E-score” value was 0.0519. With CAAGTATC the “PBM E-score” value was -0.152. With ACATCGCA the “PBM E-score” value was 0.00734. In the case of CATCAGGC, the “PBM E-score” value is reported as -0.0591. For GCTTCGTA, the “PBM E-score” value was -0.396. For ATAAAATC, the “PBM E-score” value was 0.0159. For ACGAGGTG, the “PBM E-score” value was -0.191. In the case of AGTCACTA, the “PBM E-score” value is reported as -0.118. With ACAATGTA the “PBM E-score” value was -0.0454. TCACATAA was tested, and the “PBM E-score” value was -0.22. GCCCGAGC was tested, and the “PBM E-score” value was 0.146. In the case of ATCGTTAC, the “PBM E-score” value is reported as -0.201. ATAGGTTG was tested, and the “PBM E-score” value was -0.158. For ACCACGCT, the “PBM E-score” value was -0.15. For GAGAGTAA, the “PBM E-score” value was 0.109. For ATGAGGGA, the “PBM E-score” value was -0.297. For AGATGTTG, the “PBM E-score” value was -0.0926. With AGTTTAAA the “PBM E-score” value was 0.123. AGGTCGGG was tested, and the “PBM E-score” value was 0.0897. GACGCTCA was tested, and the “PBM E-score” value was -0.0492. GCAGAAGC was tested, and the “PBM E-score” value was 0.00991. ACAGTTAT was tested, and the “PBM E-score” value was -0.0603. With AGCTAGCA the “PBM E-score” value was -0.208. With GACCCCAA the “PBM E-score” value was -0.0877. With AATGCAGT the “PBM E-score” value was -0.115. CCATGTGC was tested, and the “PBM E-score” value was -0.0642. In the case of AGCCAGGG, the “PBM E-score” value is reported as -0.238. For ACTGGATG, the “PBM E-score” value was -0.412. For AGCCTCTC, the “PBM E-score” value was -0.212. CCACACCG was tested, and the “PBM E-score” value was 0.13. With CAGCAGCG the “PBM E-score” value was -0.00585. CCTGCGAC was tested, and the “PBM E-score” value was -0.139. For CGTAAGCA, the “PBM E-score” value was -0.148. In the case of CAGTCCAG, the “PBM E-score” value is reported as -0.249. AGATAAAC was tested, and the “PBM E-score” value was 0.101. CGGGCCAG was tested, and the “PBM E-score” value was 0.158. In the case of CTTGGGGC, the “PBM E-score” value is reported as 0.0643. For CAGCGCAA, the “PBM E-score” value was -0.00957. With AAGACATG the “PBM E-score” value was -0.278. In the case of GGCCCAAA, the “PBM E-score” value is reported as -0.00724. With ACTGGACC the “PBM E-score” value was 1e-05. GAATGTGC was tested, and the “PBM E-score” value was -0.0597. In the case of ATCATGAA, the “PBM E-score” value is reported as -0.0938.
